Test results reported in ChEMBL document CHEMBL1201862, “PubChem BioAssay data set” (2004).
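Values below derive from 48-hour exposures of cells grown in 96-well plates, with endpoints linearly interpolated between the two concentrations bracketing the appropriate inhibition level. GI50 = concentration required for 50% inhibition of growth.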 Calls of active or inactive are those of the source. Cut-off read from the data, not from the text of the source: active = GI50 up to about 1.1 µM and inactive = higher. Peptide text beside a SMILES is read from it.

tested on: NCI-H322M; experiment: DTP human tumour cell line panel, 48 h

SMILES	GI50
C=C(C[C@@H](O)[C@H](C)NC(=O)OCc1ccccc1)C(=O)OC(C)(C)C	inactive: > 100 µM
COc1ccc(NC(=O)COC(=O)c2cccc3c(=O)c4ccccc4[nH]c23)cc1	inactive: 29.9 µM
S=c1[nH]c2ccc(Br)cc2c(=S)s1	inactive: 27.2 µM
N#C/C(=C\c1cc2ccccc2c2ccccc12)c1ccccc1	inactive: 11.1 µM
CCOC(=O)/C(=C\c1ccccc1)C(=O)CCN1CCOCC1	inactive: 23.7 µM
CC(=O)C(C)CCOC1(C)OCCC1C (stereo unspecified)	inactive: > 100 µM
COc1cccc(-c2cc(O)c3c(C)cc(C)nc3n2)c1	active: 0.729 µM
Cc1cc(/N=C/c2ccc(N(C)C)cc2)n(-c2ccccc2)n1	inactive: 45.3 µM
CCCOC(=O)c1cc(C(=CCC[C@H]2CC[C@@]3(C)[C@@H](CC[C@@H]4[C@@H]3CC[C@]3(C)[C@@H](C(C)CCCC(C)C)CC[C@@H]43)C2)c2cc(Cl)c(O)c(C(=O)OCCC)c2)cc(Cl)c1O (stereo partly specified)	inactive: > 50 µM
O=C(CCC(=O)Nc1ccccc1C(F)(F)F)N/N=C1\C(=N\NC(=O)CCC(=O)Nc2ccccc2C(F)(F)F)C(c2ccc3c(c2)OCO3)Oc2ccccc21 (stereo unspecified)	inactive: > 49 µM
Cc1ccc(C)c(NC(=O)c2cc(-c3ccc([N+](=O)[O-])cc3)nc(N)n2)c1	inactive: > 100 µM
O=C(NCCCCCCNC(=O)OCCSCCn1cc(C(=O)NC(=O)OCc2ccccc2)c(=O)[nH]c1=O)OCCSCCn1cc(C(=O)NC(=O)OCc2ccccc2)c(=O)[nH]c1=O	inactive: > 100 µM
Oc1ccc(NCc2cc(O)ccc2O)cc1	inactive: 16.2 µM
O=C1CCC2(c3ccc(Cl)cc3)Nc3cc(Cl)ccc3N12 (stereo unspecified)	inactive: 14.1 µM
CC(=O)COC(=O)CC(C)=O	inactive: > 100 µM
COc1c(O)c2c3c(cc(C)cc3c1C(C)C)OC2	inactive: > 100 µM
O=C(/C=C/c1ccco1)CC(=O)/C=C/c1ccco1	inactive: > 10 µM
CCn1c(SCC(=O)NNC(=S)Nc2ccc(Cl)cc2)nc2ccccc2c1=O	inactive: 53.5 µM

SMILES	GI50
CC1=C2C=CC(=O)C[C@@]2(C)CCC1	inactive: > 100 µM
C=CCC1=C(C)C[C@@H]2CCC(=O)C=C12	inactive: > 100 µM
COCCCCCC(=O)CP(=O)(OC)OC	inactive: > 100 µM
COc1cc2c(cc1C)NC(=O)/C2=C/c1cccnc1	inactive: 15.4 µM
Cc1cccc(C)c1NC(=O)C(=O)C1C(=O)N(c2ccccc2)N=C1N (stereo unspecified)	inactive: > 100 µM
CCOC(=O)[C@H]1Nc2ccccc2C2c3ccccc3CC21 (stereo partly specified)	inactive: 89.1 µM
O=C(Nc1cc(Cl)c(Cl)cc1Cl)C(=O)C1C=CCS1(=O)=O (stereo unspecified)	inactive: > 100 µM
O=C(NCCNCCCNC(=O)c1cc(-c2ccccc2)nc2ccccc12)c1cccc(O)c1O	inactive: 10.7 µM
O=C1COc2cc3c(cc2N1)SCC(=O)N3	inactive: > 100 µM
CN(C)c1ccc(/C=c2/c3ccccc3n3nc4ccccc4c23)cc1	inactive: > 100 µM
COc1cc2oc(-c3ccc(O)cc3O)c(CC=C(C)C)c(=O)c2c(O)c1/C=C/C(C)C [ARTOCARPIN]	inactive: 6.24 µM
CN(C)C(=O)Nc1cc2c3c(c1)CCCN3CCC2	inactive: > 10 µM
CC(C)(NC(=O)C(C)(C)NC(=O)OCc1ccccc1)C(=O)O (HELM PEPTIDE1{[O=C(OCc1ccccc1)[*:2]].[Aib].[Aib]}$$$$V2.0)	inactive: > 100 µM
Cc1ccc(Nc2nc(=O)[nH]c(=O)[nH]2)cc1N=[N+]=[N-]	inactive: > 100 µM
CC(C)C1SCc2nc3ccccc3n21 (stereo unspecified)	inactive: > 100 µM
CCc1cccc(CC)c1NC(=O)CC1SC(N)=NC1=O (stereo unspecified)	inactive: > 100 µM
Cc1ccc(S(=O)(=O)c2ccc([N+](=O)[O-])o2)cc1	inactive: 16.7 µM
CC1=C(C)CC2(C=C(C(C)(C)C)C(=O)C(C(C)(C)C)=C2)SC1	inactive: 22.5 µM
